# Hit rate of the full screen: of about 310,000 compounds, about 14,000 (4.5%) showed an effect of 50% or more. Effects have a minus sign here. The list shows a part of the results.
# Biological target: human ether-à-go-go-related gene (hERG) potassium channel (human, UniProt Q12809)
# Assay: primary screen, population patch clamp on CHO cells stably expressing hERG
# 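Note: peak tail current of the secondary pulse compared with the same well before compound.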
# Chain of human ether-à-go-go-related gene (hERG) potassium channel (Q12809 whole entry, looked up): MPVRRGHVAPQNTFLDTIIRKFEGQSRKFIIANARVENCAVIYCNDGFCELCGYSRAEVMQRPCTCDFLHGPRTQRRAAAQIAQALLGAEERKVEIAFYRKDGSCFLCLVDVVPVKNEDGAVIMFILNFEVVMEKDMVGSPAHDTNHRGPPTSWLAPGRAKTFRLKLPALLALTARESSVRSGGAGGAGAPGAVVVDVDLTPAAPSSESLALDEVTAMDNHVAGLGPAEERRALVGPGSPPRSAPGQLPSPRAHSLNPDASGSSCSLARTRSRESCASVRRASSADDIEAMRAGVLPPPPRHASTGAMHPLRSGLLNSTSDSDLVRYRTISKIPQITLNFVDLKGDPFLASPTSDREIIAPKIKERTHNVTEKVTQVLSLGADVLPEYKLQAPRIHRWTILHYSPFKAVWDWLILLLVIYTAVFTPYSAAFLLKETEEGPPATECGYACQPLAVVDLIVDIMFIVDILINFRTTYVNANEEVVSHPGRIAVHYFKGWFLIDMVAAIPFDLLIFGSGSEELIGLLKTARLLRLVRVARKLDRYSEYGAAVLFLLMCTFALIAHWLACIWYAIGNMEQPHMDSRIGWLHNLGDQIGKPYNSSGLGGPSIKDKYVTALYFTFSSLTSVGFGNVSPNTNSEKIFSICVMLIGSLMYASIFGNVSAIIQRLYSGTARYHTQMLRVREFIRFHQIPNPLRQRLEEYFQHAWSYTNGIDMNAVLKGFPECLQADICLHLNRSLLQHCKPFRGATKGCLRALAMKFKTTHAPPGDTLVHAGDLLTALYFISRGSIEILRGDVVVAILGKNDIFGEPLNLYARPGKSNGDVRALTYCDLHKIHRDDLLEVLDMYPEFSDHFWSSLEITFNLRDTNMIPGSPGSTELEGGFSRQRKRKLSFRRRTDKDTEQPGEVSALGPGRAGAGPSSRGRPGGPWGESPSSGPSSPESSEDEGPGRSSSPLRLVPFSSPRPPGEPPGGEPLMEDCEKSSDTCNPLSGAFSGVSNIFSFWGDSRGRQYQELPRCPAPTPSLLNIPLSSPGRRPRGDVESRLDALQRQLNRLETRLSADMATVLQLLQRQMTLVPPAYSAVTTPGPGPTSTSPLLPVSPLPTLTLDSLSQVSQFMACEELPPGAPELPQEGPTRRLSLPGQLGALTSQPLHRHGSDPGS
row,Compound,"hERG current change (%, negative = inhibition) at 10uM [%]"
1,O=C(NCCc1ccccc1)C1CC(c2ccccc2O)=NO1 (centres unmarked),-6.84
2,CCN1CCN(C(=O)C(N)Cc2ccccc2)CC1 (centres unmarked),22
3,CN1CCN(c2ccc(NC(=O)C(C)(C)C)cc2)CC1,11.8
4,O=C(COc1ccc2ccc(=O)oc2c1)Nc1cc([N+](=O)[O-])ccc1F,3.77
5,CCOc1ccc(NC(=O)[C@H](C)NC(=O)C2CC(=O)N(c3ccc(OC)cc3)C2)cc1 (some centres unmarked),27.7
6,CN(C)CCNC(=O)Cn1c(=O)c2cccn2c2ccc(F)cc21,5.12
7,CCSc1nc(N)c(NC(=O)c2ccc(Br)o2)c(=O)[nH]1,11.5
8,Cc1ccc2nc(COc3ccc(N(C)S(=O)(=O)c4ccccc4)cc3)cc(=O)n2c1,-56
9,Cc1nn(-c2ccccc2)c2nc(-c3ccco3)cc(C(=O)O)c12,1.8
10,Cc1cccc(C)c1NC(=O)N1CCC(n2cnc3ccccc32)CC1,8.94
11,COc1ccc(N2CCN(S(=O)(=O)CCNC(=O)c3cccs3)CC2)cc1,9.82
12,O=C(NC(=S)Nc1nc2c(ccc3ccccc32)s1)c1cccs1,21.6
13,Cc1ccc2cc(CN(c3ccccc3C)S(=O)(=O)c3ccccc3)c(=O)[nH]c2c1,1.8
14,CC(NC(=O)CCC(=O)c1cccs1)c1ccccc1 (centres unmarked),11.7
15,O=C(CSc1nnc(NC(=O)c2ccc(S(=O)(=O)N3CCOCC3)cc2)s1)Nc1ccccc1C(F)(F)F,16.1
16,COc1ccc(C(=O)N(Cc2ccccc2)Cc2cc3cc4c(cc3[nH]c2=O)OCCO4)cc1,-6.4
17,Fc1ccc(C2NCCc3[nH]cnc32)cc1 (centres unmarked),17.4
18,Cn1c(N)c(C(=O)CSc2nnc(C3CC3)n2-c2ccccc2)c(=O)n(C)c1=O,1.51
19,CC1CN(C(=O)Nc2cccc(Cl)c2)C2(CCCCCC2)O1 (centres unmarked),6.75
20,C#CCOCCOCCOCCNc1nc(N2CCN(C(=O)[C@H]([C@@H](C)CC)n3cc([C@@H](N)Cc4ccc(O)cc4)nn3)CC2)nc(N2CCN(C(=O)[C@H]([C@@H](C)CC)n3cc([C@@H](N)CC(C)C)nn3)CC2)n1.Cl,0.378
21,CCOc1ccc(OCC)c(-c2c(=O)n(OCc3ccc(C(C)(C)C)cc3)c3ccccc3[n+]2[O-])c1,21.3
22,Cc1ccc2nc(C3CCCN(C(=O)NCc4ccccc4)C3)[nH]c2c1 (centres unmarked),-33.8
23,O=C(N/N=C/c1cccnc1)c1cc(-c2ccc(Br)cc2)nc2ccccc12,3.47
24,CCC(=O)NC(C)C(c1cccs1)N1CCOCC1 (centres unmarked),2.49
25,CC(=O)CC(=O)NC(=NC1CCCCC1)Nc1nc(C)cc(C)n1,7.01
26,Cc1nc2ccccc2c2ncccc12,-5.7
27,COc1ccc2cc(CCNC(=O)c3cc4ccccc4o3)c(=O)[nH]c2c1,-21.3

row,Compound,"hERG current change (%, negative = inhibition) at 10uM [%]"
1,Cc1ccc(N2C(=O)CSC2c2c(F)cccc2Cl)cc1 (centres unmarked),-11.9
2,COC(=O)C1=C(C(=O)c2ccc(C)cc2)C(c2ccc(O)c(OC)c2)n2nnnc2N1 (centres unmarked),12.8
3,O=C(CCn1c(=O)sc2ccccc21)NCc1ccco1,-1.23
4,CC(C)=C(NC(=O)c1ccccc1)C(N)=O,-6.55
5,CCC(=O)N1CCN(c2ccccc2NC(=O)COc2ccc(C(C)C)cc2)CC1,-31.1
6,O=C(CSc1cccc[n+]1[O-])Nc1cc(S(=O)(=O)N2CCOCC2)ccc1N1CCOCC1,16
7,Cc1cccc(C(=O)O/N=C(/c2ccccc2)c2ccncc2)c1,-14.7
8,C=C1CCN([C@@H](CC(C)C)C(=O)NCc2cc(OC)c(OC)c(OC)c2)S(=O)(=O)c2ccccc21,7.02
9,Cc1ccc(NS(=O)(=O)c2c(C(=O)N3CCOCC3)c(C)n(C)c2C)cc1,20.3
10,CCCOc1ccc(OCCNC2CCCC2)cc1,-29.2
11,CCc1ccc(-c2nc(NC(=O)c3ccc(OCC(=O)Nc4ccc(F)cc4)c(OC)c3)sc2C)cc1,8.14
12,CN(Cc1ccccc1)C(=O)c1nc2ccccn2c1CN1CCc2sccc2C1,-47.6
13,O=C1C2Sc3[nH]c(=O)sc3C(c3ccccc3)C2C(=O)N1c1ccccc1 (centres unmarked),-2.84
14,COc1ccc(OC)c(-n2c(SCC(=O)NCc3ccco3)nnc2-c2c[nH]c3ccccc23)c1,-19.1
15,COc1ccc(C2=NOC(C(=O)Nc3cc(C)on3)C2)cc1 (centres unmarked),6.33
16,COc1cccc(N2CCN(C(=O)c3ccccc3SCC(=O)NCc3ccco3)CC2)c1,-12.4
17,COc1cccc(NC(=O)[C@@H]2CCC(=O)N2C2OC(=O)c3ccccc32)c1 (some centres unmarked),-2.49
18,COc1ccc(Cc2noc(CN(C)CC(O)c3ccccc3)n2)cc1OC (centres unmarked),-3.91
19,COc1ccc(CCNC(=O)COC(=O)c2ccco2)cc1OC,15.4
20,C=CCn1cc(C(=O)N2CCc3ccccc3C2)c(=O)c2cc(S(=O)(=O)N(CC)CC)ccc21,-45.7
21,Cc1cc(C)n(C2CC(=O)N(c3ccc(Cl)c(Cl)c3)C2=O)n1 (centres unmarked),0.639
22,Cc1ccc(NC(=O)C2CSC3(C)CCC(=O)N23)cc1S(=O)(=O)N1CCOCC1 (centres unmarked),2.81
23,COCc1nc(-c2cc(Br)ccc2OC)no1,-4.25
24,Cn1c(CC(=O)Nc2ccccc2F)nnc1SCC(=O)N1CCOCC1,12.4
25,N/C(=N\OC(=O)c1ccc2ccccc2c1)c1ccccn1,28.3
26,CCOC(=O)Cc1csc(NC(=O)COc2ccc3c(c2)CCC3)n1,-1.14

# Source: publication PMC4336329 (PLoS ONE, 2015)
